Inconclusive results, whose numbers are uncertain, are shown with a selection of clear calls. For part of these data: Potencies of inconclusive entries are doubtful fits and often do not repeat. Calls of active or inactive are those of the source. Calls follow the shape of the dose curve; as a rule, active = well fitted curve in the direction sought with a large enough effect; inconclusive = small, poorly fitted or top-dose-only effect, or another doubt; inactive = no such curve, though single readings can be large; an effect the other way counts as inactive or inconclusive.
Legend:
[1] = P-glycoprotein substrates identified in KB-8-5-11 adenocarcinoma cell line, qHTS therapeutic library screen (AID 1346987); also: nearly all actives have a fitted effect of over 65% in size
Outline: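 Compounds are pinned in dose-response onto KB-8-5-11 cells (500 cells/well, colchicine-free medium) and left 72 h at 37 degree C. CellTiter-Glo luminescence then yields AC50 values.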

[2] = qHTS to identify inhibitors of the type 1 interferon - major histocompatibility complex class I in skeletal muscle: primary screen against the NCATS Mechanism Interrogation Plate v5.0 (MIPE) Libary (AID 1347411); conditions: iHSKM cells + IFN-b, HiBiT-tagged MHC-I luminescence, 24 h; activity change, negative = inhibition: at 45.8 µM (top of the series); also: nearly all actives have a fitted effect of over 65% in size
Outline: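 Luminescence from CRISPR HiBit-tagged endogenous HLA-B in human myoblasts reported MHC class I level after 24 h of IFN-beta (4 ng/ml) plus compound. Compounds ran as 11-point 1:3 series, top 46 uM final.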

[3] = Primary qHTS for inhibitors of nuclear receptor binding SET domain protein 2 (NSD2) in an RCH-ACV wild type WT cells (2C) (AID 1645877); conditions: activity change, negative = cell killing: at 44.9 µM (top of the series) unless noted; also: nearly all actives have a fitted effect of over 70% in size
[4] = Primary redox qHTS assay for identification of artifact compounds. (AID 1845223); conditions: Amplex Red/HRP redox cycling with DTT, fluorescence; redox activity (% of DA3003): at 53.8 µM (top of the series)
Outline: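 Redox-cycling detection via DTT (250 uM final) oxidation coupled to Amplex Red (25 uM)/HRP (250 mU/mL) in HBSS. 15 min preincubation plus 30 min after DTT, room temperature. Ex/Em 525/598 nm; 4-parameter Hill fit against DMSO and 10 uM DA3003.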

[5] = system: HaCat; assay: Cytotoxic Profiling of Annotated Libraries Using Quantitative High-Throughput Screening (AID 1296008); conditions: Five cell lines viability, CellTiter-Glo ATP luminescence, 48-72 h; max response: stronger effect = lower value; also: nearly all actives have a fitted effect of over 60% in size
Outline: (§1)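 Compounds were pin-transferred onto cells and incubated 48 or 72 hr at 37 degree Celsius, 95% humidity. CellTiter-Glo was added, plates sat 10 min at room temperature, then ATP-coupled luminescence was imaged as the viability read-out.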

[6] = system: KB-3-1; assay: as above; conditions: Five cell lines viability, CellTiter-Glo ATP luminescence, 48-72 h; max response: stronger effect = lower value
Outline: as §1

[7] = system: NIH3T3; assay: as above; conditions: Five cell lines viability, CellTiter-Glo ATP luminescence, 48-72 h; max response: stronger effect = lower value
Outline: as §1

[8] = system: CAOV3; assay: Primary qHTS to identify gynecologic anti-cancer compounds using libraries of approved drugs and bioactive compounds (AID 1345084); conditions: Gynecologic cancer cell panel viability, ATPlite luminescence, 48 h; activity change, negative = cytotoxicity: at 57.5 µM (top of the series); also: nearly all actives have a fitted effect of over 55% in size; as to activity change, negative = cytotoxicity: % is scaled to controls: 0 for no effect and ±100 for the full control effect
Outline: (§2)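 Measured: luminescence after ATPlite addition (15 min, RT). Exposure: 48 h, 37 C, 5% CO2.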

[9] = system: CASKI; assay: as above; conditions: Gynecologic cancer cell panel viability, ATPlite luminescence, 48 h; series mostly up to 57.5 µM
Outline: as §2

[10] = system: OV90; assay: as above; conditions: Gynecologic cancer cell panel viability, ATPlite luminescence, 48 h; series mostly up to 57.5 µM
Outline: as §2

[11] = system: SKOV3; assay: as above; conditions: Gynecologic cancer cell panel viability, ATPlite luminescence, 48 h; series mostly up to 57.5 µM
Outline: as §2

[12] = system: C33A; assay: as above; conditions: Gynecologic cancer cell panel viability, ATPlite luminescence, 48 h; series mostly up to 57.5 µM
Outline: as §2

[13] = system: Es-2; assay: as above; conditions: Gynecologic cancer cell panel viability, ATPlite luminescence, 48 h; series mostly up to 57.5 µM
Outline: as §2

[14] = system: HeLa; assay: as above; conditions: Gynecologic cancer cell panel viability, ATPlite luminescence, 48 h; activity change, negative = cytotoxicity: at 57.5 µM (top of the series)
Outline: as §2

[15] = system: Hek293T; assay: as above; conditions: Gynecologic cancer cell panel viability, ATPlite luminescence, 48 h, control line for the selectivity index; activity change, negative = cytotoxicity: at 57.5 µM (top of the series) unless noted
Outline: as §2

[16] = system: PA-1; assay: as above; conditions: Gynecologic cancer cell panel viability, ATPlite luminescence, 48 h; series mostly up to 57.5 µM
Outline: as §2

[17] = system: Tov-21-G; assay: as above; conditions: Gynecologic cancer cell panel viability, ATPlite luminescence, 48 h; activity change, negative = cytotoxicity: at 57.5 µM (top of the series) unless noted
Outline: as §2

[18] = system: Tov112D; assay: as above; conditions: Gynecologic cancer cell panel viability, ATPlite luminescence, 48 h; series mostly up to 57.5 µM
Outline: as §2

[19] = target: Phospholipid hydroperoxide glutathione peroxidase GPX4 (Homo sapiens) (UniProt P36969); assay: Primary qHTS Assay for Inhibitors of Recombinant Selenoprotein Glutathione Peroxidase 4 (GPX4) (AID 1845192); also: nearly all actives have a fitted effect of over 65% in size
Chain of UniProt P36969 (P36969 whole entry, looked up): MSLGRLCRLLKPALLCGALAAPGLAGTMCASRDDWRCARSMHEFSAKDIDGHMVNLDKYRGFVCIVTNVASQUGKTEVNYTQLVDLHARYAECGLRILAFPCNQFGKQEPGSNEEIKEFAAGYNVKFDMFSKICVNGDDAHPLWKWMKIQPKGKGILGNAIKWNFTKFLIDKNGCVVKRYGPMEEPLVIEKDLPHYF
Outline: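 qHTS, GR-coupled: GPX4 200 nM + cpd 30 min RT → GSH 1 mM, NADPH 0.5 mM, GR 100 nM → CHP 0.5 mM start; fluor 340/450 at t0 and t15 min; no-enzyme wells as control.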

[20] = Primary fluorescence-based thiol-reactive (MSTI) qHTS assay for identification of artifact compounds. (AID 1845221);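 also: thiol-reactive compounds lower the probe fluorescence signal; nearly all actives have a fitted effect of over 65% in size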
Outline: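 Reactivity toward the thiol probe MSTI (4 uM) is scored by fluorescence at Ex/Em 525/598 nm after 1 h at room temperature. Acetyl-MSTI and MSTI define the activity scale.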

[21] = system: JEG-3; assay: Primary qHTS to identify gynecologic anti-cancer compounds using libraries of approved drugs and bioactive compounds (AID 1345084); conditions: Gynecologic cancer cell panel viability, ATPlite luminescence, 48 h; series mostly up to 57.5 µM; also: nearly all actives have a fitted effect of over 55% in size; as to activity change, negative = cytotoxicity: % is scaled to controls: 0 for no effect and ±100 for the full control effect
Outline: as §2

[22] = qHTS assay to identify inhibitors of the type 1 interferon - major histocompatibility complex class I in skeletal muscle: Counter screen cell viability and HiBit confirmation (AID 1347412); conditions: iHSKM muscle cells + IFN-b, HiBiT or CellTiter-Glo, 24 h; also: nearly all actives have a fitted effect of over 60% in size; as to activity change, negative = inhibition: % is scaled to controls: 0 for no effect and ±100 for the full control effect
Outline: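 Duplicate plates, pinned identically: one read for HiBiT-tagged endogenous HLA-B luminescence, the other for ATP-content viability via CellTiter Glo. Cells were genome-engineered human myoblasts given 4 ng/ml IFN-b; compounds 12-pt, 1:3 from 46 uM final; 24 hr exposure.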
Potency is read from the fitted curve at half-maximal effect; tags tell the direction and shape of the fitted curve.

COCC(=O)NC/C=C/c1ccc2ncnc(Nc3ccc(Oc4ccc(C)nc4)c(C)c3)c2c1
inactive: Potency [10]
inconclusive: Potency [1] 16.4 µM [inhibitor, partial curve] | Potency [2] 29.4 µM [inhibitor, single point] | Potency [4] 4.23 µM [activator, single point] | Potency [5] 2.31 µM [inhibitor, partial curve] | Potency [6] 16.4 µM [inhibitor, single point] | Potency [7] 29.1 µM [inhibitor, single point] | Potency [8] 39.8 µM [cytotoxic, single point] | Potency [9] 22.4 µM [cytotoxic, partial curve, poor fit]
active: Potency [3] 16.3 µM | Potency [11] 31.6 µM

CC#CC(=O)Nc1ccc2ncnc(Nc3cccc(Br)c3)c2c1
active: Potency [5] 0.0326 µM | Potency [12] 11.2 µM | Potency [9] 8.91 µM | Potency [13] 14.1 µM | Potency [16] 7.94 µM | Potency [17] 14.1 µM | Potency [18] 12.6 µM
inconclusive: Potency [1] 29.1 µM [inhibitor, single point] | Potency [6] 18.4 µM [inhibitor, single point] | Potency [7] 29.1 µM [inhibitor, single point] | Potency [8] 14.1 µM [cytotoxic, partial curve, poor fit] | Potency [14] 20 µM [cytotoxic, single point] | Potency [15] 12.6 µM [cytotoxic, partial curve, poor fit] | Potency [11] 11.2 µM [cytotoxic, partial curve]

Cn1cncc1C(N)(c1ccc(Cl)cc1)c1ccc2c(c1)c(-c1cccc(Cl)c1)cc(=O)n2C (configuration not stated)
inactive: activity change, negative = inhibition ([22]; Viability, at 45.9 µM (top of the series)) -22.3%
inconclusive: Potency [2] 16.5 µM [inhibitor, partial curve, poor fit] | Potency [19] 25.5 µM [inhibitor, partial curve] | Potency [20] 10.6 µM [inhibitor, single point] | Potency [5] 18.4 µM [inhibitor, single point] | Potency [7] 29.1 µM [inhibitor, single point] | Potency [12] 0.282 µM [cytotoxic, full curve, poor fit] | Potency [8] 39.8 µM [cytotoxic, single point] | Potency [13] 0.282 µM [cytotoxic, full curve, poor fit] | Potency [15] 2 µM [cytotoxic, full curve] | Potency [21] 1 µM [cytotoxic, full curve, poor fit] | Potency [10] 11.2 µM [cytotoxic, single point] | Potency [16] 3.55 µM [cytotoxic, full curve, poor fit] | Potency [17] 14.1 µM [cytotoxic, partial curve, poor fit] | Potency [18] 8.91 µM [cytotoxic, partial curve, poor fit] | Potency ([22]; HiBiT) 24.9 µM [inhibitor, partial curve, poor fit]
active: Potency [6] 16.4 µM

— PubChem BioAssay (NCATS)
